Among all 310,000 compounds or so, about 14,000 (4.5%) showed an effect of 50% or more. The effect is printed as a negative number. The list shows a part of the results.
Target: human ether-à-go-go-related gene (hERG) potassium channel (human, UniProt Q12809)
Experiment: primary screen, population patch clamp on CHO cells stably expressing hERG
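Also: peak tail current of the secondary pulse compared with the same well before compound.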

Sequence of human ether-à-go-go-related gene (hERG) potassium channel (Q12809 whole entry, looked up): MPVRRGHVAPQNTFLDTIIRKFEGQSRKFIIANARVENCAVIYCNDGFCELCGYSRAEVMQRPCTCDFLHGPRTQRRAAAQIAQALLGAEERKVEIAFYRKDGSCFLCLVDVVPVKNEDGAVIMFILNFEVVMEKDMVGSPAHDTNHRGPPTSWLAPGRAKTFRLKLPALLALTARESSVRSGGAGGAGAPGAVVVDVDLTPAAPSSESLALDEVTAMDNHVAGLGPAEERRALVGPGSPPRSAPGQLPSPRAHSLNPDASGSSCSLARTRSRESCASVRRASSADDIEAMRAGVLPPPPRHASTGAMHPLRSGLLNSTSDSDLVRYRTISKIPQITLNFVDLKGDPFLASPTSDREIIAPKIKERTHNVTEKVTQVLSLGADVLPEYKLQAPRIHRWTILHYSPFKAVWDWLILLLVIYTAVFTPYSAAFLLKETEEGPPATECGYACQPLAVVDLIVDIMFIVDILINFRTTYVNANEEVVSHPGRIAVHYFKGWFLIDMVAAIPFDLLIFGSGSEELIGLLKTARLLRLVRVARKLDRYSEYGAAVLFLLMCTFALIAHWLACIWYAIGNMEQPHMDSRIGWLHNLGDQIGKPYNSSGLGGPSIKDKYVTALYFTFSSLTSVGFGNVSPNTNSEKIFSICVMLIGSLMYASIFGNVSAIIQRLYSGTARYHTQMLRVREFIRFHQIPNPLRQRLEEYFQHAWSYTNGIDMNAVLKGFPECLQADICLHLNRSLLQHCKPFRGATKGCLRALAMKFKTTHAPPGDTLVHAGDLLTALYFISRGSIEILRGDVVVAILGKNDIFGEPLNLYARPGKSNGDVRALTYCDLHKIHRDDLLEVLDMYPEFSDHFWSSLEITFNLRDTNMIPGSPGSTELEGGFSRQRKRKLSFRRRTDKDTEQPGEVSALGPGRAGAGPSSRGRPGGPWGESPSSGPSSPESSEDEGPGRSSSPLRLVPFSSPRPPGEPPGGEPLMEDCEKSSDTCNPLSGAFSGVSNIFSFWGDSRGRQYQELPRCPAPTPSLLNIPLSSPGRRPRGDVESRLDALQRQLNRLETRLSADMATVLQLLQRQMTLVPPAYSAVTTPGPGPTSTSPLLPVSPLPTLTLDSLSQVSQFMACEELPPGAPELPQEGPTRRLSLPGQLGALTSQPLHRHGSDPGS

With `N#C/C(=C(/O)COC(=O)CSc1ccc(Cl)cc1)c1nc2ccccc2[nH]1` as the compound, how does the “hERG current change (%, negative = inhibition) at 10uM” value read?
The value was 12.6%.

`CCC(C)n1c(-c2cccc(S(=O)(=O)N(CC)CC)c2)n[nH]c1=S` (stereo not shown) was tested. Which “hERG current change (%, negative = inhibition) at 10uM” value did it give?
The value was 26.6%.

Which “hERG current change (%, negative = inhibition) at 10uM” value does the source give for `CCN(CC)S(=O)(=O)c1ccc(N2CCCC2)c(NC(=O)c2c(-c3ccccc3)noc2C)c1` here?
Its value is 15.2%.

How did the “hERG current change (%, negative = inhibition) at 10uM” value turn out when `O=C(c1cccc(Cl)c1)C1CCCN(Cc2cccc3cnccc23)C1` (stereo not shown) was run?
The value was -32.7%.

Which “hERG current change (%, negative = inhibition) at 10uM” value does the source give for `C#CCOc1ccc(/C=N/O)cc1Cl` here?
The value was -10.8%.

For `Cc1ccc(N(C(=O)c2ccc(S(=O)(=O)N(C)C)cc2)C2C=CS(=O)(=O)C2)cc1` (stereo not shown), which “hERG current change (%, negative = inhibition) at 10uM” value is on record?
The value was 13.6%.

Which “hERG current change (%, negative = inhibition) at 10uM” value does the source give for `CN(Cc1ccccc1)CC(O)COc1ccc(CNCCc2cccnc2)cc1` (stereo not shown) here?
The value was -11.5%.

For `COC(=O)c1ccc(N/N=C/c2cc([N+](=O)[O-])cc(OC)c2O)cc1`, which “hERG current change (%, negative = inhibition) at 10uM” value is on record?
Its value is 11.5%.

With `CNC(=S)N(CCc1c(C)[nH]c2ccc(C)cc12)Cc1cc(OC)c(OC)c(OC)c1` as the compound, how does the “hERG current change (%, negative = inhibition) at 10uM” value read?
Its value is -12.1%.

With `COc1ccc(CNC(=O)CCN2C(=O)[C@@H]3Cc4ccccc4CN3C2=O)cc1` as the compound, how does the “hERG current change (%, negative = inhibition) at 10uM” value read?
The value was -32.2%.

For `COc1ccc(N2CC(C(=O)Nc3cc(C(F)(F)F)ccc3N3CCCC3)CC2=O)c(OC)c1` (stereo not shown), which “hERG current change (%, negative = inhibition) at 10uM” value is on record?
Its value is -19.5%.

Which “hERG current change (%, negative = inhibition) at 10uM” value does the source give for `COc1cc(-c2c(-c3cc(OC)c(OC)c(OC)c3)noc2C)ccc1F` here?
Its value is 13.6%.

How did the “hERG current change (%, negative = inhibition) at 10uM” value turn out when `Cc1ccccc1C(=O)NCCNC(=O)c1ccccn1` was run?
The value was 6.75%.

Which “hERG current change (%, negative = inhibition) at 10uM” value does the source give for `Cc1cc(S(=O)(=O)NCC(C)C)ccc1OCC(=O)NCc1ccccn1` here?
The value was -22.8%.

How did the “hERG current change (%, negative = inhibition) at 10uM” value turn out when `Cc1ccc(-c2csc3nc4cc(C(=O)NC5CCC(O)CC5)ccc4c(=O)n23)cc1` (stereo not shown) was run?
Its value is -2%.

Which “hERG current change (%, negative = inhibition) at 10uM” value does the source give for `CCS(=O)(=O)N1CCC(C(=O)NCCc2ccccc2)CC1` here?
The value was 0.876%.

With `CC(=O)c1ccc(NC(=O)c2ccc(S(=O)(=O)c3ccccc3)cc2)cc1` as the compound, how does the “hERG current change (%, negative = inhibition) at 10uM” value read?
The value was -0.407%.

`Cc1ccsc1/C=N/n1c(-c2ccccn2)n[nH]c1=S` was tested. Which “hERG current change (%, negative = inhibition) at 10uM” value did it give?
Its value is 15.5%.

With `Cc1cccc(N2CCN(C(=O)CCN3C(=S)NC(C)(C)CC3C)CC2)c1C` (stereo not shown) as the compound, how does the “hERG current change (%, negative = inhibition) at 10uM” value read?
Its value is -27.7%.

How did the “hERG current change (%, negative = inhibition) at 10uM” value turn out when `COC(=O)c1c(NC(=O)/C=C/C(=O)O)sc(C)c1-c1ccc(C(C)C)cc1` was run?
The value was 6.58%.

With `O=C(NC1CCCCCC1)C(Cc1ccccc1)n1cccc1` (stereo not shown) as the compound, how does the “hERG current change (%, negative = inhibition) at 10uM” value read?
Its value is -2.45%.

Which “hERG current change (%, negative = inhibition) at 10uM” value does the source give for `COc1ccc(Cn2c(CO)cnc2SCC(=O)Nc2cccc(NC(C)=O)c2)cc1` here?
Its value is 13.7%.

How did the “hERG current change (%, negative = inhibition) at 10uM” value turn out when `O=C(Nc1ccccc1)c1snc2c(=O)[nH]cnc12` was run?
The value was 20.3%.

With `C/C(=C/C#N)Nc1ccc(C)cc1` as the compound, how does the “hERG current change (%, negative = inhibition) at 10uM” value read?
The value was 18.3%.

For `CCCCn1c(N)c(N(CC(C)C)C(=O)c2cc(S(=O)(=O)N3CCOCC3)ccc2Cl)c(=O)[nH]c1=O`, which “hERG current change (%, negative = inhibition) at 10uM” value is on record?
Its value is 22.2%.

For `CCOc1ccc(Oc2nc(Nc3ccc(C)cc3)nc(N(C)C)n2)nn1`, which “hERG current change (%, negative = inhibition) at 10uM” value is on record?
Its value is 13.2%.

How did the “hERG current change (%, negative = inhibition) at 10uM” value turn out when `CC(=O)Nc1ccc(N2CCN(C(=O)c3cccs3)CC2)cc1` was run?
Its value is 2.48%.

`CC1C(=O)N2CCCc3cc(S(=O)(=O)N4CCN(c5ccccc5F)CC4)cc1c32` (stereo not shown) was tested. Which “hERG current change (%, negative = inhibition) at 10uM” value did it give?
The value was -8.8%.

How did the “hERG current change (%, negative = inhibition) at 10uM” value turn out when `O=C(N/N=C/c1ccco1)C1CC(=O)N(c2ccccc2)C1` (stereo not shown) was run?
The value was -2.52%.

How did the “hERG current change (%, negative = inhibition) at 10uM” value turn out when `CC(=O)C1=C(C)NC(C)=C(C(C)=O)C1c1cccs1` was run?
The value was 5.62%.

For `CSC1=NNC(c2ccc(C(C)(C)C)cc2)=NN1`, which “hERG current change (%, negative = inhibition) at 10uM” value is on record?
The value was -21.3%.

For `Cc1nc(C)c(C(=O)NCc2ccccc2Cl)o1`, which “hERG current change (%, negative = inhibition) at 10uM” value is on record?
Its value is -2%.

With `Cc1ccccc1N1C(=O)c2cccc3cccc(c23)C1=O` as the compound, how does the “hERG current change (%, negative = inhibition) at 10uM” value read?
The value was -7.92%.

How did the “hERG current change (%, negative = inhibition) at 10uM” value turn out when `COc1ccc(-n2c(CNC(=O)COc3ccc(Cl)cc3Cl)n[nH]c2=S)cc1` was run?
The value was -34.2%.

`Cc1cc(Cl)ccc1OC(C)C(=O)Nc1cnn(CCCC(=O)O)c1` (stereo not shown) was tested. Which “hERG current change (%, negative = inhibition) at 10uM” value did it give?
The value was 27.1%.

How did the “hERG current change (%, negative = inhibition) at 10uM” value turn out when `O=C(NCc1ccccn1)C1(C(F)(F)F)C/C(=C\CCO)CCCO1` (stereo not shown) was run?
The value was 6.37%.

With `CCN(CC)CCC(c1cc(OC)c(OC)c(OC)c1)c1c(OC)cc(OC)c2c(C)cc(=O)oc12` (stereo not shown) as the compound, how does the “hERG current change (%, negative = inhibition) at 10uM” value read?
The value was -48.5%.

With `COCC(=O)Nc1ccc(S(=O)(=O)NCCc2ccccc2)cc1` as the compound, how does the “hERG current change (%, negative = inhibition) at 10uM” value read?
Its value is -16.5%.

How did the “hERG current change (%, negative = inhibition) at 10uM” value turn out when `O=C(Nc1ccc(S(=O)(=O)Nc2nccs2)cc1)/C(=C/c1ccccc1Cl)NC(=O)c1ccccc1` was run?
Its value is 8.97%.

How did the “hERG current change (%, negative = inhibition) at 10uM” value turn out when `CCSc1nc2ccccc2n1Cc1ccccc1F` was run?
The value was -10.6%.

How did the “hERG current change (%, negative = inhibition) at 10uM” value turn out when `Cc1nn(C)cc1CN1CCC(CO)(CCOc2ccccc2)CC1` was run?
Its value is -22.6%.

Which “hERG current change (%, negative = inhibition) at 10uM” value does the source give for `O=C(c1ccc(S(=O)(=O)N2CCCCCC2)cc1)N1CCN(c2ccccc2)CC1` here?
Its value is -6.96%.

For `CCCNC(=O)c1ccc(Cl)cc1Cl`, which “hERG current change (%, negative = inhibition) at 10uM” value is on record?
The value was 12.9%.

How did the “hERG current change (%, negative = inhibition) at 10uM” value turn out when `NC(=O)C1CCN(C(=O)C2CC(=O)N(Cc3ccccc3)C2)CC1` (stereo not shown) was run?
The value was -2.41%.

With `O=S(=O)(c1cccs1)N1CCN(CC(O)COc2cccc(Br)c2)CC1` (stereo not shown) as the compound, how does the “hERG current change (%, negative = inhibition) at 10uM” value read?
The value was -61.1%.

With `CC(C(N)=O)N1C(=O)c2cccc3cccc1c23` (stereo not shown) as the compound, how does the “hERG current change (%, negative = inhibition) at 10uM” value read?
The value was -0.963%.

For `CC(Sc1ncnc2ccccc12)C(=O)Nc1ccc2c(c1)OCCO2` (stereo not shown), which “hERG current change (%, negative = inhibition) at 10uM” value is on record?
The value was 5.25%.

With `COC(=O)CSc1nnc(-c2ccco2)n1-c1ccc(C)cc1` as the compound, how does the “hERG current change (%, negative = inhibition) at 10uM” value read?
The value was -24.2%.

For `O=c1c2ccccc2nc(/C=C/c2ccccc2O)n1-c1ccccc1O`, which “hERG current change (%, negative = inhibition) at 10uM” value is on record?
Its value is 17.6%.

How did the “hERG current change (%, negative = inhibition) at 10uM” value turn out when `COc1ccc(Br)cc1C(=O)Nc1ccccc1N1CCN(C(=O)c2ccccc2)CC1` was run?
The value was -52.4%.

With `CS(=O)(=O)c1ccc2nc(NC(=O)c3ccc(NS(=O)(=O)c4cccc([N+](=O)[O-])c4)cc3)sc2c1` as the compound, how does the “hERG current change (%, negative = inhibition) at 10uM” value read?
Its value is 10.6%.

How did the “hERG current change (%, negative = inhibition) at 10uM” value turn out when `O=[N+]([O-])c1ccc(CSc2nnc3ccccn23)cc1` was run?
Its value is -57.2%.

How did the “hERG current change (%, negative = inhibition) at 10uM” value turn out when `O=C(c1ccc(CSc2ccc(Cl)cc2)cc1)N1CCCC1` was run?
The value was 0.0198%.

Which “hERG current change (%, negative = inhibition) at 10uM” value does the source give for `O=C(CCc1nnc2n(Cc3ccc(Cl)cc3)c(=O)c3ccccc3n12)NCCCN1CCOCC1` here?
Its value is -59.9%.

How did the “hERG current change (%, negative = inhibition) at 10uM” value turn out when `Cc1ccc(NC(=O)CSC2=C(C#N)C(c3ccco3)C3=C(CC(C)(C)CC3=O)N2)cc1` (stereo not shown) was run?
Its value is 20.4%.
